Measured values taken from PubChem BioAssay AID624417 (National Center for Advancing Translational Sciences (NCATS), 2012).
Screen size: about 410,000 compounds; about 6,400 (1.6%) were called active. The inconclusive results got no clear call from the source; some entries with a clear call stand among them for comparison. The call rests on the fitted dose curve; in most records, active means well fitted inhibition curve with a large enough effect; inconclusive means small, poorly fitted or top-dose-only effect; inactive means no such curve, though single readings can be large or run the other way. No potency is given beside an inconclusive call; the fits are too rough.
Further: nearly all actives have a fitted effect of over 55% in size.
On the % scale 0 is the no-effect control and ±100 the full control effect; potency means the concentration at half of the fitted maximal effect; tags describe the fitted curve by direction and shape.

What follows are molecules tested against Glucagon-like peptide 1 receptor (Homo sapiens) (UniProt P43220) (assay: qHTS of GLP-1 Receptor Inverse Agonists (Inhibition Mode)). Settings: HEK293 GLP-1R CRE-luciferase, luminescence, 24 h, GLP-1R form is constitutively active; activity change, negative = inhibition: at 38.3 µM (top of the series) unless noted.
Sequence of UniProt P43220 (P43220 whole entry, looked up): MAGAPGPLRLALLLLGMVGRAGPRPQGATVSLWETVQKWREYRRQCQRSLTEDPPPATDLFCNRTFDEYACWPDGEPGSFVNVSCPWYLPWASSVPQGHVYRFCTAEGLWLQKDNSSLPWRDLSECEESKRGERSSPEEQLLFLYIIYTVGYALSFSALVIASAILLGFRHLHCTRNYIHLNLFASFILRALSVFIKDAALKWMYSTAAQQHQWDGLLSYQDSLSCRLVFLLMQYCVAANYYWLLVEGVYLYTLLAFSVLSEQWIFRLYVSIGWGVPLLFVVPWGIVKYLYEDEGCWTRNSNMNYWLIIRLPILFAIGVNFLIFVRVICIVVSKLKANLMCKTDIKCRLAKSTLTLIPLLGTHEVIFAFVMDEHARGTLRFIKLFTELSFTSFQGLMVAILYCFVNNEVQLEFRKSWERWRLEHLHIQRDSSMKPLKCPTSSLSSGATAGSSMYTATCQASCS
In short: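 Readout was luciferase luminescence, measured 12 min after detection reagent at room temperature. Beforehand, GLP-1R reporter HEK293 cells had sat 12 h, then received compounds for 24 hr at 37 deg C.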
In the case of `CCOc1ccc(OCCCCOc2ccccc2C(C)=O)cc1`, the Potency is reported as inconclusive [inhibitor, single point].
In the case of `CC1=Nc2cc(C(=O)NC3CCCCC3)ccc2Sc2ccc(Cl)cc21`, the Potency is reported as inconclusive [inhibitor, full curve, poor fit].
In the case of `C[C@H](O)CNC(=O)c1[nH]cnc1C(=O)Nc1cccc(Cl)c1`, the “activity change, negative = inhibition” value is reported as inactive: 39.5%.
With `OCCNCC(O)Cn1ccc2ccccc21` (stereo not given) the “activity change, negative = inhibition” value was inactive: 7.39%.
For `S=c1[nH]nc(-c2cccc(Br)c2)o1`, the “activity change, negative = inhibition” value was inactive: 2.76%.
In the case of `CCCCCCCn1c2c(c(=N)c3c1CCC3)CCCC2`, the “activity change, negative = inhibition” value is reported as inactive: -8.55%.
With `Cc1ccc([N+](=O)[O-])cc1NC(=O)CN(C)CCOc1ccccc1` the Potency was inconclusive [inhibitor, partial curve, poor fit].
`CCOc1ccc(NC(=O)CN2CCN(c3ccccc3C)CC2)cc1S(=O)(=O)N1CCCC1` was tested, and the Potency was inconclusive [inhibitor, partial curve, poor fit].
With `Cc1nn(CCC#N)c2nc(-c3ccccc3)cc(C(F)(F)F)c12` the Potency was inconclusive [inhibitor, single point].
With `C[C@@H](C(=O)NC1CCCCC1)N1C(=O)N2CCc3c([nH]c4ccccc34)[C@@]2(C)C1=O` the Potency was inconclusive [inhibitor, single point].
With `Cc1cccc(N2CCN(Cc3cn(C)nc3-c3ccccc3F)CC2)n1` the Potency was inconclusive [inhibitor, partial curve, poor fit].
In the case of `COc1ccc(NC(=S)N2CCC(C(=O)c3ccc(C)cc3)CC2)cc1`, the Potency is reported as inconclusive [inhibitor, partial curve, poor fit].
For `O=C(O)c1ccc(/C=C(\c2nc3ccccc3[nH]2)c2nc3ccccc3s2)cc1`, the Potency was inconclusive [inhibitor, single point].
With `CCNCCC(CCC(C)C)c1ccc2c(c1)OCO2` (stereo not given) the Potency was inconclusive [inhibitor, partial curve, poor fit].
In the case of `O=C(CCCc1ccccc1)NC1CC(=O)N(c2ccc(Cl)cc2)C1` (stereo not given), the “activity change, negative = inhibition” value is reported as inactive: -10.1%.
For `COc1ccccc1Nc1nc(N)nc(CSC(=S)N2CC(C)CC(C)C2)n1` (stereo not given), the Potency was inconclusive [inhibitor, partial curve, poor fit].
`CCc1nc2ccc(C(=O)N(C)Cc3ccccc3)cn2c1N(C)CCCc1ccccc1` was tested, and the Potency was inconclusive [inhibitor, single point].
For `C/C(NC(=O)c1cccs1)=C1\C(=O)C[C@@H]2[C@H]1C2(C)C`, the “activity change, negative = inhibition” value was inactive: -51.2%.
With `CCOC(=O)c1ccc(NC(=O)c2c(NC(=O)CCC(=O)O)sc3c2CCCCC3)cc1` the “activity change, negative = inhibition” value was inactive: 11.7%.
In the case of `O=C(Nc1ccccn1)c1cc(-c2ccc(Cl)s2)nc2ccccc12`, the Potency is reported as inconclusive [inhibitor, partial curve, poor fit].
`Cc1ccc(C)c(-c2csc(N)c2C(=O)OC(C)C)c1` was tested, and the Potency was inconclusive [inhibitor, single point].
In the case of `O=c1cc(-c2ccc(O)cc2)oc2c(O)c(O)c(O)c(O)c12`, the “activity change, negative = inhibition” value is reported as inactive: 10.6%.
For `FC(F)(F)c1cccc(Cc2noc(CN3CCSCC3)n2)c1`, the Potency was inconclusive [inhibitor, partial curve, poor fit].
With `O=P(c1ccccc1)(c1ccccc1)c1nc(-c2ccc(Cl)cc2)oc1N1CCOCC1` the Potency was inconclusive [inhibitor, single point].
With `CCOc1ccc(-n2cc(C(=O)Nc3cccc(Cl)c3)c3cc(OC)c(OC)cc3c2=O)cc1` the Potency was inconclusive [inhibitor, full curve, poor fit].
For `CCc1nc2c(OCc3ccc(Cl)cc3Cl)cccn2c1N(C=O)Cc1ccc(OC)cc1`, the Potency was inconclusive [inhibitor, partial curve].
For `CC(C)(C)c1ccc(C(=O)NCCC(=O)Nc2cc(Cl)ccc2N2CCOCC2)cc1`, the Potency was inconclusive [inhibitor, single point].
With `O=C(CCC(=O)c1ccc(Oc2ccccc2)cc1)Nc1cccc(Cl)c1` the Potency was inconclusive [inhibitor, partial curve, poor fit].
With `COc1ccc(NS(=O)(=O)c2ccc3c(c2)NC(=O)C(C)S3)cc1` (stereo not given) the Potency was inconclusive [inhibitor, partial curve, poor fit].
In the case of `Cn1c(S(=O)(=O)O)nc2ccccc21`, the “activity change, negative = inhibition” value is reported as inactive: 10.8%.
With `O=C(NC1(C(F)(F)F)C(=O)Nc2c1c(=O)[nH]c(=O)n2CCc1ccccc1)c1ccc(Cl)cc1` (stereo not given) the “activity change, negative = inhibition” value was inactive: 13.5%.
For `CC(Nc1ccccc1)C(=O)Nc1ccc(F)cc1` (stereo not given), the Potency was inconclusive [inhibitor, single point].
`CCCCCNC(=O)C(c1cccc2ccccc12)n1c(=O)c(-c2cc3ccccc3[nH]2)nc2ccccc21` (stereo not given) was tested, and the Potency was inconclusive [inhibitor, full curve, poor fit].
For `O=C(ONC1=NCCCCC1)c1cccc([N+](=O)[O-])c1`, the Potency was inconclusive [inhibitor, partial curve, poor fit].
`CCCCC1=CC2=C(c3ccco3)C(=O)C(C)(OC(=O)c3ccc(OC)cc3)C(=O)C2=CN1C1CCCCC1` (stereo not given) was tested, and the Potency was inconclusive [inhibitor, single point].
`CC(Sc1nnc(-c2ccccc2)c(-c2ccccc2)n1)C(=O)N1CCc2ccccc21` (stereo not given) was tested, and the Potency was inconclusive [inhibitor, single point].
For `CC(C)CC1NC(=O)N(CC(=O)N2c3ccccc3NC(=O)C2(C)C)C1=O` (stereo not given), the “activity change, negative = inhibition” value was inactive: 17.3%.
`COc1ccc(OC)c(NC2=NC3(CCCC3)N=C(N)N2)c1` was tested, and the “activity change, negative = inhibition” value was inactive: -2.33%.
For `Cc1ccc(C(=O)NCC(=O)NCc2ccc(Cl)cc2)s1`, the Potency was inconclusive [inhibitor, single point].
For `CCN(N=O)[C@@H](Cc1ccccc1)CN(N=O)[C@@H](Cc1ccccc1)CN(C)N=O`, the “activity change, negative = inhibition” value was inactive: -2.07%.
`CCOc1ccc(Nc2c(S(=O)(=O)c3ccc(C)cc3)cnc3cc(OC)c(OC)cc23)cc1` was tested, and the Potency was inconclusive [inhibitor, single point].
In the case of `CCc1sc(C(=O)NCc2ccco2)cc1Br`, the Potency is reported as inconclusive [inhibitor, partial curve, poor fit].
`Oc1ccc(/C=C/c2nc(-c3ccccc3O)n(-c3ccccc3)n2)c(O)c1` was tested, and the “activity change, negative = inhibition” value was inactive: -25.3%.
With `Cc1ccc(OC(=O)c2oc3ccc(F)cc3c2C)c(C)c1` the “activity change, negative = inhibition” value was inactive: 3.58%.
With `Cc1ccc(NC(=O)C2CC(O)CN2C(=O)OCc2ccccc2)c(C)c1` (stereo not given) the Potency was inconclusive [inhibitor, partial curve, poor fit].
For `S=C1SCN(Cc2cccs2)CN1Cc1cccs1`, the Potency was inconclusive [inhibitor, partial curve, poor fit].
With `COc1cccc(NC(=O)Nc2cccn(Cc3ccc(C)cc3)c2=O)c1` the Potency was inconclusive [inhibitor, partial curve, poor fit].
For `COc1cc(NC(=O)Cn2nc(C(F)(F)F)c(Br)c2C)cc([N+](=O)[O-])c1`, the Potency was inconclusive [inhibitor, partial curve, poor fit].
`O=C(CN1C(=O)NC2(CCCCCCC2)C1=O)Nc1c(Cl)cccc1Cl` was tested, and the Potency was inconclusive [inhibitor, single point].
For `COc1ccc(NC(=S)c2ccc3ccccc3n2)cc1`, the Potency was inconclusive [inhibitor, single point].
For `Cc1cc(/C=C\c2ccccc2)nc2ccccc12`, the Potency was inconclusive [inhibitor, single point].
For `CC(C)(C)c1ccc(S(=O)(=O)N2CCN(CC(=O)NC(=O)NC3CCCCC3)CC2)cc1`, the Potency was inconclusive [inhibitor, partial curve].
`CCOC(=O)[C@H]1[C@H]2COc3ccc(Cl)cc3[C@@H]2N2C(=O)c3cc(F)ccc3NC(=O)[C@@]12C` was tested, and the Potency was inconclusive [inhibitor, partial curve, poor fit].
`CCc1nc(N(CC)CC)c2oc3ccccc3c2n1` was tested, and the Potency was inconclusive [inhibitor, partial curve, poor fit].
In the case of `CCOc1ccc(NC(=O)c2cc(=O)c3cc(CC)ccc3o2)cc1`, the “activity change, negative = inhibition” value is reported as inactive: -0.692%.
`COc1cccc(CN2CCc3nc(Nc4ccc5c(c4)OCCO5)ncc3C2)c1OC` was tested, and the Potency was inconclusive [inhibitor, partial curve, poor fit].
With `CCC(CC)COC(=O)C1=C(C)NC(=O)NC1c1ccccc1Br` (stereo not given) the Potency was inconclusive [inhibitor, single point].
In the case of `COc1ccccc1NC(=S)NCCc1ccc(OC)c(OC)c1`, the “activity change, negative = inhibition” value is reported as inactive: 30.6%.
In the case of `Cc1cnc(NC(=O)CSc2nnc(-c3ccccc3)o2)s1`, the Potency is reported as inconclusive [inhibitor, full curve].
For `Cc1ccc(CCNC(=O)CN2C(=O)CSc3ccc(S(=O)(=O)N4CCOCC4)cc32)cc1`, the “activity change, negative = inhibition” value was inactive: -35.8%.
In the case of `Cc1cc(/C=N/O)c(C)n1-c1ccc(Br)cc1`, the Potency is reported as inconclusive [inhibitor, partial curve, poor fit].
`CCOc1ccc(-c2nnc(SCC(=O)N3CCNC3=O)o2)cc1` was tested, and the Potency was inconclusive [inhibitor, single point].
`c1ccc2c(NC3C4CC5CC(C4)CC3C5)nc(N3CCOCC3)nc2c1` (stereo not given) was tested, and the Potency was inconclusive [inhibitor, partial curve, poor fit].
With `CC1=C(C(=O)OC(C)C)C(c2ccccc2)NC(=S)N1C` (stereo not given) the Potency was inconclusive [inhibitor, partial curve, poor fit].
`CC(C)(C)Nc1ncnc2c1cnn2-c1ccccc1` was tested, and the Potency was inconclusive [inhibitor, partial curve, poor fit].
